Results reported in the supplement of paper PMC12217912.
The other results are listed elsewhere or left out. Sequences were assembled here from the parent chain. Inactive controls read about 0.05.

B1: TEV protease; numbered along this chain (parent)
chain: MGESLFKGPRDYNPISSSICHLTNESDGHTTSLYGIGFGPFIITNKHLFRRNNGTLVVQSLHGVFKVKDTTTLQQHLVDGRDMIIIRMPKDFPPFPQKLKFREPQREERICLVTTNFQTKSMSSMVSDTSCTFPSGDGIFWKHWIQTKDGQCGSPLVSTRDGFIVGIHSASNFTNTNNYFTSVPKNFMELLTNQEAQQWVSGWRLNADSVLWGGHKVFMVKPEEPFQPVKEATQL

Variants of: B1
Test: raw area under fraction-flipped curve 0-4 h after induction (AUC4h, not background-subtracted), DNA-recorder readout of cleavage of the substrate (dimensionless); higher = more cleavage of the substrate by the protease variant
Details: temperature: 34 °C; time window: 0-4 h after rhamnose induction
Method: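 In vivo DNA recorder in E. coli TOP10(DE3) ΔrhaA at 34 °C. Each TEVp single-site mutant (parent TEVp 0) is paired with a single-site variant of the 7-mer TEVs (canonical ENLYFQ|S). The substrate sits between flexible linkers in a Bxb1-sfGFP-TEVs-SsrA fusion, so cleavage stabilises Bxb1 and speeds flipping of a recombination array, read by NGS. The value is the raw area under the fraction-flipped curve over 0-4 h after rhamnose induction (AUC4h), with ≥20 reads per time point. It is not background-subtracted; inactive controls average about 0.047.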
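Note: Bxb1 expression induced with 0.2% (w/v) L-rhamnose at OD600 near 0.5, cultures sampled hourly, flipped fraction per protease–substrate barcode pair counted by paired-end Illumina sequencing.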

Variant	area with substrate ENLYDQS	area with substrate ENLYEQS	area with substrate ENLYGQS	area with substrate ENLYHQS	area with substrate ENLYIQS	area with substrate ENLYKQS	area with substrate ENLYMQS	area with substrate ENLYNQS	area with substrate ENLYPQS	area with substrate ENLYRQS	area with substrate ENLYSQS	area with substrate ENLYTQS	area with substrate ENLYVQS	area with substrate ENLYWQS	area with substrate ENLYQQS	area with substrate ENLYYQS	area with substrate ENLYLQS
C152W	0.0582	0.0637	0.0573	0.0634	0.0581	0.0428	0.0565	0.0606	0.0609	0.06	0.0571	0.0548	0.0514	0.0542			
C152V	0.0536	0.0566	0.0609	0.0622	0.0586	0.0665	0.0628		0.0526	0.06			0.0599	0.0557	0.0621	0.0629	
C152L	0.0565	0.0712		0.0584	0.0589	0.0601	0.0411	0.0595	0.0584	0.0603	0.0627	0.101	0.0391	0.0585			
K120F	0.0687	0.0577				0.0596		0.0667	0.0751		0.0804			0.0665			
W144V	0.0583	0.0659	0.0747	0.0639	0.0913	0.0611	0.0803	0.0535	0.064	0.0629				0.0513	0.0722	0.0655	
W144M	0.107	0.113		0.0777	0.078	0.0606		0.0608	0.0758	0.0628		0.06	0.0969		0.0503	0.0694	
W144C	0.0661	0.071		0.0708	0.0716	0.0679	0.0595	0.0626	0.0713	0.0633		0.0985	0.112	0.0678	0.068	0.0612	0.0696
W144P	0.0515	0.0523	0.0695	0.0694	0.121	0.0586	0.0793	0.06	0.0611	0.0732		0.078		0.0705	0.0623	0.0587	0.0846
W144S	0.07	0.0781		0.082		0.0628			0.0815	0.0616	0.0782			0.0832	0.0635		0.0682
F140R	0.0446	0.0499	0.0634	0.0612	0.0733	0.0507	0.0625	0.0614	0.0629	0.0638	0.0557	0.0674	0.0749	0.0606	0.0518	0.0514	0.0673
G80N	0.0472			0.0778	0.107	0.0216	0.0848	0.0658	0.0639	0.0817			0.128	0.113	0.044		0.108
G80K	0.0492	0.0628	0.0584	0.0696	0.103		0.0664	0.0721	0.0756			0.0769	0.11	0.0681	0.0698		
R160I	0.0568	0.0759	0.0448	0.077	0.107	0.0643	0.0723	0.0637	0.0805	0.0652	0.0491		0.116	0.0675		0.0671	
H168L	0.0583	0.0641	0.0636	0.0585	0.0642	0.0491	0.0618	0.0764			0.0654	0.0259	0.0671			0.0572	0.0366
H168K	0.0586	0.0704	0.0576	0.0585	0.0439		0.0539	0.0629	0.0714	0.0625	0.0587		0.0527	0.0628	0.0626		
H168M	0.0639	0.0476	0.0667	0.0568	0.0614	0.0488	0.0612		0.0648	0.061	0.0629	0.0147	0.0644	0.0602	0.0579	0.0629	0.0559
H168E	0.052	0.0564	0.0491			0.0571	0.0485	0.0541	0.0697	0.0648	0.0584	0.0582		0.0497	0.0491		0.0559
P96N	0.0119	0.0662	0.0661	0.0613	0.16	0.0482	0.0962	0.0702	0.0741	0.0659	0.0813	0.0767	0.091	0.103		0.0638	0.0915
P96K	0.0601	0.0646	0.0679	0.0699	0.115	0.0645	0.0776	0.0687	0.0876				0.131	0.0877	0.0552		
P96Y	0.0522			0.0644		0.0197				0.0587		0.0743	0.13	0.045		0.0602	0.12
M88W	0.0524	0.0608	0.058	0.0557	0.106	0.0454	0.0729	0.0621	0.0604	0.0499			0.0701		0.0534	0.0635	
M88D	0.0456	0.0429	0.0528	0.0319	0.0538	0.0604			0.0443	0.0523					0.0374		
M88Q	0.0236	0.0665	0.0522	0.0639		0.0458	0.122	0.0603	0.0688	0.0886			0.113	0.0859			0.116
D128K	0.0541		0.103	0.0469						0.0421	0.0776	0.0882		0.0944	0.0668		
D128R	0.076	0.121	0.0878	0.0632	0.111	0.0132	0.118	0.0578	0.0703	0.0557			0.143	0.109			
D128L	0.0628	0.0827	0.0743	0.0776	0.138	0.0654	0.111	0.0778	0.0812			0.086	0.163	0.0981	0.0605	0.0892	
L112S	0.0597	0.0527	0.0698		0.101	0.0639		0.055	0.0794		0.0644			0.0599	0.0565		0.136
P104W	0.0343	0.058	0.0611	0.0739		0.0614	0.0554	0.0592	0.0565	0.0482		0.0554	0.0576	0.0334	0.0656	0.0448	0.0495
